“And” between values parts separate entries of the source, which are not always exact repeats. Equal values may be shown once.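 Compound exposure: 48 hours, 5 concentrations, 96-well plates. GI50 = concentration required for 50% inhibition of growth. TGI is the concentration that stops growth completely.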 A value given as a limit tells only on which side of the number the result lay.

This assay relates to NCI-H322M lung. The assay is described as follows: inhibition of tumour cell growth, NCI panel, 48 h.
Take `COc1cc(C(=O)NC2c3ccccc3-c3ccccc32)c(N)cc1OCc1ccccc1`: the GI50 was more than 100 µM and the TGI was more than 100 µM. In the case of `CN(C)CC(=O)N1CCC(c2ccc(NC(=O)c3ncc(C#N)[nH]3)c(C3=CCCCC3)c2)CC1`, the GI50 was 11.7 µM and the TGI is 24.2 µM. The molecule `O=c1[nH]c2nc3ccccc3c(=O)n2/c1=C/c1ccc(O)cc1` displayed a TGI of more than 100 µM. `O=c1c2ccccc2[nH]c(=S)n1-c1ccc(N=Nc2cccc3c(O)cccc23)cc1` registered a TGI of more than 100 µM. On the same count and under the same terms, the same measure for `O=C1CC(C(O)CO)CC(=O)N1` (centres undefined): more than 100 µM. Same read-out and setting: next, `CCCCc1c(O)nc(Nc2nc3ccccc3[nH]2)[nH]c1=O`: more than 100 µM; `C#CCNC(=O)NC(CCCNC(=O)OCc1ccccc1)C(=O)OCc1ccccc1` (centres undefined): more than 100 µM. On the same count and under the same terms, the same measure for `Cc1c(Cl)cccc1NC(=O)C(=O)C1C(=O)CC(C)(C)CC1=O`: more than 100 µM.

With `Clc1ccccc1C(c1ccccc1)(c1ccccc1)n1ccnc1`, the GI50 is 3.12 µM; the TGI is 13.8 µM and 29.9 µM. In the case of `COc1ccc(C2C(Cl)C(=O)N2NC(=O)c2ccc(NC(C)=O)cc2)cc1` (centres undefined), the TGI was more than 100 µM. In turn, `COC(=O)c1cc(CC(C)C)c2c(c1)[nH]c1ccccc12` returned a TGI of more than 100 µM. Molecule `Cc1ccc(-c2c(N)nc(NC#N)nc2CCC(=O)Nc2ccccc2[N+](=O)[O-])cc1` displayed a TGI of more than 100 µM. The same measure, in the same setting: the same measure for `O=C1O[C@@H](c2ccccc2)C[C@@H]1CN1CCOCC1`: more than 100 µM; for `CC(=O)NC1C(OCc2ccccc2)OC(CO)C(O)C1OCC(=O)N[C@@H](C)C(=O)N[C@H](CCC(=O)NCCNCCNc1c2ccccc2nc2cccc([N+](=O)[O-])c12)C(N)=O` (some centres undefined): more than 100 µM. For `CCC(C)C1NC(=O)c2nc(oc2-c2ccccc2)-c2csc(n2)-c2csc(n2)-c2nc(oc2C)-c2coc(n2)CNC(=O)C(C(C)CC)NC1=O` (centres undefined), the GI50 was 0.0531 µM and the TGI was determined as 0.184 µM. Turning to `O=C(c1ccc2ccccc2c1)c1c(C(F)(F)F)n([O-])c2cc(Cl)c(Cl)cc2[n+]1=O`, the GI50 is 1.84 µM and the TGI turned out to be 4.03 µM. For `O=C(NS(=O)(=O)Nc1ccc(Cl)cc1)OCc1ccc(Cl)cc1Cl`, the TGI was determined as 55.6 µM.

Turning to `CCCCCCCCCCCCCC(=S)NCCCC[C@H](NC(=O)OCc1ccccc1)C(=O)Nc1ccccc1`, the GI50 was more than 100 µM and the TGI is more than 100 µM. With `Cc1cc2c(c(C(=O)NCCC(=O)O)c1)Oc1c(cc(C)cc1C(=O)NCCC(=O)O)S2`, the TGI is more than 100 µM. As for `C=C1C(=O)O[C@H]2[C@H]1CC/C(CNC(=O)c1c[nH]c3ccc(F)cc13)=C\CC[C@@]1(C)O[C@@H]21`, the GI50 is 10.3 µM and the TGI was 22.7 µM. Regarding `COc1ccc2nc(-c3ccc(OCc4ccccc4)cc3)ccc2c1`, the TGI was more than 100 µM. `Cc1ccc(-c2cc(N)n(-c3nc4c([nH]3)c(=O)n(C)c(=O)n4C)n2)cc1` returned a TGI of 22.4 µM. On the same count and under the same terms, next, `Cc1c(/C=N\NC(=S)N2CCN(C(=S)N/N=C\c3c(C)n(C)n(-c4ccccc4)c3=O)CC2)c(=O)n(-c2ccccc2)n1C`: more than 100 µM.

On to `COc1cc2oc(-c3ccc(O)cc3)c(OC3OC(C)C(O)C(O)C3O)c(=O)c2c(O)c1OC` (centres undefined), for which the TGI was more than 100 µM. Consider `CCCCCCCCCCCCC(=O)OC(c1cnco1)c1nc(C(O)CC(O)C(O)C(C)O)co1` (centres undefined), for which the GI50 was 1.03 µM and the TGI was more than 92.4 µM. For the molecule `C=C1CCC2C(/C=C(\C)CCC1O)OC(=O)C2C` (centres undefined), the GI50 was more than 100 µM and the TGI was more than 100 µM. Consider `O=C(Nc1cccc(-n2ccc3c(NC(=O)c4ccccc4)nccc32)c1)c1cccc(C(F)(F)F)c1`, for which the GI50 is 0.222 µM and the TGI is more than 100 µM. `N#CC(=C1SCS1)[N+](=O)[O-]`: the GI50 was 19.4 µM and the TGI was more than 100 µM. In the same order, the values of `CC(C)(C)OC(=O)n1cc(CNC(=S)Nc2ccccc2)c2ccccc21` are 16.3 µM and 44.2 µM. Molecule `N#Cc1c(N)[nH]c(=S)c(C#N)c1-c1cccc(Cl)c1` displayed a TGI of more than 100 µM. The same measure, in the same setting: next, `CCOc1ccc(NC(=O)CC2Sc3ccccc3NC2=O)cc1` (centres undefined): more than 100 µM. As for `CN1CCN(Cc2ccc(C(=O)Nc3cncc(C#Cc4cnc(N)c5ccccc45)c3)cc2C(F)(F)F)CC1`, the GI50 is 3.73 µM and the TGI amounted to 13.9 µM. As to `Brc1cccc(-c2cc(-c3ccc4c(c3)OCCO4)[nH]n2)c1`, the GI50 is 2.39 µM and the TGI was found to be 45.9 µM.

In the case of `OCC1CCCC(n2cnc3c(=S)nc[nH]c32)O1` (centres undefined), the TGI is more than 100 µM. Take `CCCN=C1CC(C)Nc2ccccc2N1` (centres undefined): the TGI is more than 100 µM. Consider `CC1(C)N=C(N)N=C(N)N1c1ccc(CCCCc2ccc(S(=O)(=O)F)cc2)cc1`, for which the GI50 was 2.72 µM and the TGI is more than 77.2 µM.

With `CCOC(=O)c1cc(=C2\CCN(CC(C)CC)C2=S)/c(=C(/O)CC)[nH]1` (centres undefined), the TGI worked out at 61.3 µM. Same read-out and setting: the same measure for `O=c1[nH]c2ccccc2cc1C(Cl)=C(Cl)Cl`: more than 100 µM. Same read-out and setting: the same measure for `CCOC(=O)CCC(NC(=O)c1ccc(OCc2nc3cc(C(F)(F)F)ccc3nc2-c2ccccc2)cc1)C(=O)OCC` (centres undefined): more than 100 µM. Regarding `C[C@@H]1CC[C@H]2C(COCC3=C(C(F)(F)F)O[C@@H]4O[C@@]5(C)CC[C@H]6[C@H](C)CC[C@@H]3[C@@]46OO5)=C(C(F)(F)F)O[C@@H]3O[C@@]4(C)CC[C@@H]1[C@]32OO4`, the GI50 was more than 100 µM and the TGI is more than 100 µM. As to `CC1(C)CC2(C)CC1CC2O` (centres undefined), the TGI was more than 100 µM.

`COc1ccc(Nc2c(C#N)c3n(c4ccccc24)c2ccccc2[n+]3C)cc1OC`: the TGI turned out to be 12.2 µM.

`COC1OC(=O)[C@H]2O[N+]([O-])=C(C)[C@@H]12` (some centres undefined) showed a TGI of more than 100 µM. For `C=C1C(O)C2CCC(C)(C)C(=O)C2=C(CC(C)C)C12CC2` (centres undefined), the GI50 is 32.1 µM and the TGI was 98.6 µM. As to `O=[N+]([O-])[C@@H]1C2C=CC(C2)[C@H]1Cl` (some centres undefined), the TGI is more than 100 µM.

For the molecule `O=c1c2c3ccccc3[nH]c2c2cccc3c2n1CCC3`, the TGI was more than 100 µM. For `Nc1n[nH]c(=O)[nH]1`, the TGI is more than 100 µM. The same measure, in the same setting: next, `O=C(O)c1ccc(NC(c2ccccc2)c2ccc3cccnc3c2O)cc1` (centres undefined): more than 100 µM; `O=C(C#Cc1c[nH]c(=O)[nH]c1=O)c1ccccc1Cl`: more than 100 µM; `Clc1cc(N/N=C(/c2ccccc2)c2ncccn2)ncn1`: 88.4 µM.

As for `CCOc1ccc(S(=O)(=O)/N=C2\C=C(SCC(=O)O)C(=O)c3ccccc32)cc1`, the GI50 is 18.6 µM and the TGI stood at 35.6 µM.

With `COc1ccc(-c2c(C#N)c(S)n(C3OC(COC(C)=O)C(OC(C)=O)C(OC(C)=O)C3OC(C)=O)c(=O)c2C#N)cc1` (centres undefined), the TGI was more than 100 µM. On the same count and under the same terms, the same measure for `COC(=O)C1=C(C(=O)OC)C2OC1C1C2C2(C)C(C)=C(C)C1(C)S2=O` (centres undefined): more than 53.8 µM; for `COC(=O)C(c1[nH]nc2ccccc12)C(C(=O)OC)c1[nH]nc2ccccc12` (centres undefined): more than 100 µM; for `Cc1ccccc1C1OC1C(=O)c1ccccc1N` (centres undefined): more than 100 µM. The same measure, in the same setting: the same measure for `CCOC(=O)C(OCC1CC=CCC1)Sc1ccccc1` (centres undefined): more than 100 µM.

On to `COc1ccc(-c2cc(-c3cc(Cl)ccc3Cl)nc3[nH]c(-c4cc(F)c(Cl)cc4Cl)cc(=O)c23)cc1`, for which the GI50 is 19.6 µM and the TGI turned out to be 67.7 µM.

As for `O=C1CC(O)c2c1csc2Br` (centres undefined), the TGI is more than 100 µM. Regarding `N#Cc1c(-c2cccs2)c2c(=S)[nH]c(=S)[nH]c2[nH]c1=S`, the GI50 is 25.2 µM and the TGI was 92.9 µM.

As to `COc1ccc(C(=S)N2CCN(c3cccc(Cl)c3)CC2)cc1`, the GI50 was more than 100 µM and the TGI is more than 100 µM. On to `Fc1cccc(COc2ccc(Nc3ncncc3C#Cc3ccccc3)cc2Cl)c1`, for which the GI50 is more than 25 µM and the TGI is more than 25 µM. As for `COC1(C(=O)N2Cc3nc(Cl)nc(N[C@H](C)c4cc(N)cc(C(F)(F)F)c4)c3C2)CCOCC1`, the GI50 is 8.12 µM and the TGI was more than 100 µM. Regarding `CC(C)(C)c1cc(O)c(O)c(C(C)(C)C)c1`, the GI50 was 8.09 µM and the TGI stood at 20.8 µM. With `CCOC(=O)c1cc2c([N+](=O)[O-])c(NC(C)=O)ccc2s1`, the TGI was more than 100 µM. For the molecule `COc1c(C2CC(=O)Nc3c2cnn3Cc2ccco2)cc2c(c1OC)OCO2` (centres undefined), the GI50 was 0.524 µM and the TGI was more than 100 µM. With `Cc1[nH]c(/C=C2\C(=O)Nc3ccc(S(=O)(=O)Cc4c(Cl)cccc4Cl)cc32)c(C)c1C(=O)N1CCC[C@@H]1CN1CCCC1`, the GI50 was 5.47 µM and the TGI was found to be 11.6 µM. Turning to `[N-]=[N+]=Nc1c(Cl)c(=O)n(-c2ccccc2)c2ccccc12`, the TGI is 61.6 µM. The same measure, in the same setting: the same measure for `Nc1nc2ncc(SCc3ccc(C(=O)NC(CCC(=O)O)C(=O)O)cc3)cc2c(=O)[nH]1` (centres undefined): more than 100 µM; for `O=C1CC2(C[C@@H]3CCCCCCCCC[C@@H](C3)C2)N1` (some centres undefined): 31.4 µM. In turn, `O=c1oc2ccccc2c(O)c1C(c1cc(OCc2ccccc2)cc(OCc2ccccc2)c1)c1c(O)c2ccccc2oc1=O` came in with a TGI of 33.6 µM.

As for `CC(=O)[CH-]C(=O)c1ccccc1.CC(=O)[CH-]C(=O)c1ccccc1.CCCCCCCCCCCCCCCCCC(=O)[O-].CCCCCCCCCCCCCCCCCC(=O)[O-].[Ti+4]`, the GI50 is 39.3 µM and the TGI was more than 100 µM.

As for `COc1ccc(/C(=C/n2ccnc2)C(=O)c2ccc(OC)c(OC)c2)cc1`, the TGI is more than 100 µM. Still for that read-out and setting: the same measure for `C[N+](C)(C)CC(=O)N/N=c1\cc(C(=O)Nc2ccc(N=O)cc2C#N)oc2cc(O)ccc12`: more than 100 µM; for `CC(C)(C)C(=O)C(CC(=O)c1ccccc1)C(=O)C(C)(C)C`: more than 100 µM. The molecule `Cc1sc2nc3n(c(=O)c2c1C)N=CN(c1ccccc1)C3` registered a TGI of more than 100 µM. Consider `Cc1nn(-c2ccc(S(=O)(=O)[O-])cc2)c([O-])c1N=[N+](C)c1ccc(-c2ccc(N=Nc3ccc4c(S(=O)(=O)[O-])cc(S(=O)(=O)[O-])c(N)c4c3[O-])c([O-])c2)cc1[O-].[Cu+2].[Cu+2].[Na+]`, for which the GI50 was more than 100 µM and the TGI is more than 100 µM. For the molecule `C=CC(=O)Nc1cccc(-c2nc(SC)nc(Nc3ccccc3OC)c2C#N)c1`, the GI50 was 2.53 µM and the TGI turned out to be 8.32 µM. For `Cc1cc([C@@H](C)Nc2ccccc2C(=O)O)c2nc(N3CCOCC3)cc(=O)n2c1`, in that order: more than 10 µM and more than 10 µM. The molecule `O=C(Cc1nc2ccc(C(=O)c3ccccc3)cc2[nH]c1=O)C(=O)Nc1ccc(Br)cc1` registered a TGI of more than 100 µM.

Source of the values: PubChem BioAssay (NCI).
